# About 540 (0.36%) of roughly 150,000 compounds showed an effect of 50% or more. Some of the results follow.
# Test system: Plasmodium falciparum
# Experiment: Primary screen in NF54 nanoGlo assay, in single point, at 2uM, 72h; a lower Z score goes with more inhibition
# Type: functional, Erythrocyte
# Details: timepoint 72 hour
SMILES,% Inhibition,Z score
Cc1cnccc1NCCNCc1ccc(OC(C)C)c(Cl)c1,79%,-17.03
C[C@H](NC(=O)c1cnc(-c2ccncc2)s1)C1CCN(CC(F)(F)F)CC1,-10%,1.99
COCC1(C(=O)N2CCc3c(nc(N)[nH]c3=O)C2)CCC1,1%,-0.18
O=S(=O)(Nc1ccc(Nc2cc(-n3ccnc3)ncn2)cc1)c1ccc2ccccc2c1,16%,-2.46
COC1CC(C(=O)N2CCC(c3c(-c4ccccc4)[nH]c4ccccc34)CC2)CCC1O (stereo unspecified),-6%,1.06
CCN(CC)CCCN(CC)c1ncnc2[nH]ccc12,-8%,1.17
CC1CN(Cc2ccc3cn[nH]c3c2)CCN1CC(O)c1ccccc1 (stereo unspecified),-9%,1.86
C[C@@H](c1ccc(-c2ccc3cc[nH]c(=O)c3c2)cc1)N1CCOCC1,-6%,1.35
C[C@@H](CN1CCN(C)CC1)N1CCC2(CCN(C)C2)CC1,0%,0.08
Cc1cc(N2CCCN(C[C@H]3Cc4c(C)nc(C)nc4O3)CC2)ccn1,6%,-0.97
Brc1cccc(NCCNC2CCN(Cc3cccnc3)CC2)c1,28%,-4.96
CCNc1ncc(C(=O)NCCN2CCC[C@H](c3ccccc3)C2)cn1,-12%,2.39
OC[C@H]1CC[C@H](NCc2ccc3[nH]cnc3c2)CC1,10%,-1.75
COc1nc2c(cc1CNC(=O)CC(C)C)C(=O)N(CCc1ccccn1)C2,-9%,1.65
COCc1nc(CC(=O)Nc2cc(Cl)c(O)c(Cl)c2)cs1,-3%,0.52
Cc1cc(-c2ccc(OCC(=O)NCc3nc4ccccc4[nH]3)c(CN3CCOCC3)c2)c2ccccc2n1,2%,-0.33
O=C(NC[C@H](N1CCNCC1)C(F)(F)F)c1ccc2c(c1)CCNCC2,3%,-0.56
c1ccc(-n2cnc3c(N[C@H]4CCNC5(CCC5)C4)ncnc32)cc1,3%,-0.61
O=C1c2cccc3cccc(c23)C(=O)N1Cc1nnc(Nc2ccccc2)s1,-10%,1.53
CCN1C2CCC1CC(NCc1cccc(CN3CCCC3)c1)C2 (stereo unspecified),21%,-3.2
COc1ccc2[nH]c(CN[C@H]3CCOC3)cc2c1,-9%,1.96
Cc1ccccc1-c1cccc(CN2CCC[C@H](N3CCC(CO)CC3)C2)c1,-7%,1.2
Cc1c(CNCCN2CCCC[C@@H]2CO)[nH]c2c(Cl)cccc12,-7%,1.22
CC(C)[C@H](CNC(=O)Nc1ccccc1CS(C)(=O)=O)c1ccnn1C,21%,-3.65
CN(Cc1ccc2ncccc2c1)C(=O)NCC1CCN(C2CCCC2)CC1,3%,-0.57
COCCOc1ccccc1C(=O)N(C)[C@@H](Cc1ccccn1)C(C)(C)C,6%,-1.22
CC(C)(C)OC(=O)N1C2CCC1CC(CNc1ncncc1C#N)C2 (stereo unspecified),4%,-0.67

SMILES,% Inhibition,Z score
C[C@@H](CN1CCOCC1)C(=O)N(C)Cc1ccc2ncccc2c1,-9%,1.58
Oc1cccc([C@@H]2CN(c3cncc(OC4CCCCC4)n3)CCO2)c1,-5%,0.83
CN1CCC(N(C)CCN(C)C(=O)NCc2ccnc(-n3ccnc3)c2)CC1,9%,-1.99
Cc1ccc(F)c(CNC(=O)N2CC[C@@]3(CN(C)C(=O)CO3)C2)c1F,3%,-0.73
COCCN(Cc1cc2ccc(Cl)cc2nc1-c1cccc(C)c1)C(=O)c1ccc2c(c1)OCO2,-6%,1.04
NC(=O)NCC(=O)N1CCOC2(CCN(C(=O)CCC3CCCC3)CC2)C1,-2%,0.37
CCc1cc(NC2CCN(c3ncccc3C#N)CC2)nc(N2CCOCC2)n1,-9%,1.55
COc1ccc2c(N3CC[C@H](CN4CCCC4)C3)ccnc2c1,91%,-15.93
CC(CC(F)F)C(=O)NCC[C@H](C)Nc1cnc2cc(F)c(F)cc2n1 (stereo partly specified),-9%,1.51
Fc1ccc(Oc2ccnc(Nc3ccc(NC4CCOCC4)cc3)n2)cc1,5%,-0.92
O=C(Nc1nc2ccccc2n1C1CCCC1)c1ccc(Cn2ccnc2)cc1,4%,-0.96
O=C(CCCc1ccccc1)Nc1cccc(N2CCC(NCCN3CCOCC3)CC2)c1,-12%,2.11
Cc1nc(NC2COCC2N2CCN(C)CC2)nc2c1CCCC2 (stereo unspecified),-8%,1.16
CNC(=O)c1ccc(C(=O)Nc2nc(C3(C)CC3)ns2)cn1,23%,-4.92
Cn1c(NC(=O)Cc2c[nH]c3ncccc23)nc2cc(Cl)c(Cl)cc21,-4%,0.82
CN1CCN(C(=O)c2ccc(CNc3cc(-n4cccn4)nc(N)n3)cc2)CC1,1%,-0.13
Cc1ccc(NCCCNc2cc(C3CC(N)C3)nc(N)n2)nc1 (stereo unspecified),6%,-1.24
CCNc1ccc(Nc2nc(C(F)(F)F)ns2)cn1,0%,0.09
O[C@@H](CNc1nccc(-n2cccn2)n1)c1ccc(F)c(F)c1,-4%,0.68
COCC[C@H]1CCCN(C(=O)c2cccc(-c3cccc4[nH]ccc34)c2)C1,1%,-0.14
COC(=O)c1ccc(CN2CCCn3nccc32)cc1,-4%,0.65
CC(C)N1CC[C@H](N2CCCN(c3cncc(F)c3)CC2)C1=O,-9%,1.32
CCN1C2CCC1CC(NCC(O)c1cccc(C)c1)C2 (stereo unspecified),7%,-1.24
CCN1CCC(CNc2ncnc3cccc(OC)c23)CC1,16%,-2.91
Cc1cc(NCc2cnc3ccc(Br)cn23)cc(N2CCN(C)CC2)c1,-1%,0.21
CCc1nn(C)c(NC(=O)CN(C)Cc2ccc(C)cc2)c1C,-2%,0.37

# Source: ChEMBL document CHEMBL5308541, “MAIP: An Open-Source Tool to Enrich High-Throughput Screening Output and Identify Novel, Druglike Molecules with Antimalarial Activity” (ACS Med Chem Lett, 2023)
